100 compounds from PubChem BioAssay AID1508623 (National Center for Advancing Translational Sciences (NCATS), 2021) can be followed below.

In all, about 48,000 compounds went through this assay and about 450 (0.94%) were called active. About 19% were inconclusive and are not listed. Calls come from the whole dose curve; as a rule, active = well fitted inhibition curve with a large enough effect; inconclusive = small, poorly fitted or top-dose-only effect; inactive = no such curve, though single readings can be large or run the other way. The list shows a part of the results.

The assay in a line: Primary qHTS for Identification of Small Molecule Inhibitors of Huntingtin Promoter Activity. Note: nearly all actives have a fitted effect of over 50% in size. Particulars: HEK293 HTT promoter firefly luciferase reporter (activity 0% = vehicle and -100% = no light), 24 h; series mostly up to 57.5 µM; activity change, negative = inhibition: at the top concentration. In outline: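 Quantitative HTS used concentration series of up to 57.5 uM final on HEK293 luciferase reporter cells, 24 h at 37 degrees C. Readout was Dual-Glo firefly luminescence.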
For `Cn1cc(-c2ccc3nnc(Sc4ccc5ncccc5c4)n3n2)cn1`, the “activity change, negative = inhibition” value is inactive: -1.58%. For the compound `CCOc1ccc(CNC(=O)C2Cc3ccccc3N2C(=O)CC)cc1OC` (stereo not given), the “activity change, negative = inhibition” value was inactive: 0%. The same measure for `Clc1ccc(Nc2nnc(Cc3ccncc3)c3ccccc23)cc1`: inactive: -5.91%; for `CCCc1nn2c(=O)cc(COC(=O)c3ccccc3NC(=O)COc3ccccc3F)nc2s1`: inactive: 0%. Take `Cc1cccc(CNC(=O)CCn2c(=O)c3cccn3c3ccc(F)cc32)c1`: the “activity change, negative = inhibition” value was inactive: 3.19%. The same measure for `Cc1nc2c(C(=O)NCCCN(CC(C)C)CC(C)C)cnn2c(C)c1Cc1c(F)cccc1Cl`: inactive: -17.6%; for `CCCOC(=O)c1c(NC(=O)c2nc3ncccn3n2)sc(C(N)=O)c1C`: inactive: -3.46%; for `COc1cccc(CNCCNC(=O)c2nonc2N)c1`: inactive: -5.56%. The same measure for `Cc1cccc(NS(=O)(=O)c2c(C)nc3sccn3c2=O)c1C`: inactive: -20.4%. With `O=C(NCc1ccccc1Cl)c1cc2c(s1)-c1ccc(Cl)cc1SC2`, the “activity change, negative = inhibition” value was inactive: -0.793%. The same measure for `CCSc1nc2c([nH]c3ccccc32)c(=O)n1CC`: inactive: -14.6%. The result for `CCOc1ccccc1NC(=O)N1CC(CC)Oc2ccccc21` (stereo not given) reads inactive: -15.6%; that for `Cc1ccc(C(=O)CSc2nc(-c3ccccc3)nc3c2CCCC3)cc1`, inactive: 0.521%. The result for `CCOC(=O)CSc1nc(-c2ccc(C)cc2C)cc(-c2ccccc2)c1C#N` reads inactive: -6.84%; that for `COc1cccc(-n2c(=O)c3c(C)c(C)sc3n(CC(=O)NCc3ccc(C)cc3)c2=O)c1`, inactive: -1.15%. For `CC(C)(C)C(=O)Nc1cccc(-c2cn3cccnc3n2)c1`, the “activity change, negative = inhibition” value was inactive: 31.3%. The result for `Cc1cccc(CSc2ncc(Cl)c(C(=O)Nc3sc4c(c3C(N)=O)CCCC4)n2)c1` reads inactive: -5.96%; that for `O=C(Cn1c(=O)nc(-c2ccccc2)c2ccccc21)Nc1cccc(C(F)(F)F)c1`, inactive: -12.3%; that for `CCOC(=O)c1ccc2c(c1)N(CC(=O)N(C)c1ccccc1)C(=O)c1ccccc1S2`, inactive: -38%.

As to `COc1ccc(-c2cn(-c3ccc(C)cc3)c(S(=O)(=O)CC(=O)Nc3ccc(F)cc3)n2)cc1`, the “activity change, negative = inhibition” value is inactive: -4.19%.

Consider `COc1ccccc1NC(=O)c1cc(=O)c2ccc(C)c(C)c2o1`, for which the activity change, negative = inhibition is inactive: 22.1% [at 11.5 µM]. As to `Cc1ccc(Cc2c(C)nc3nc(SCC(=O)NC4CCC(C)CC4)nn3c2C)cc1` (stereo not given), the “activity change, negative = inhibition” value is inactive: -5.65%. The same measure for `O=C(CC1N=C2c3ccccc3N=C(SCc3cccc(Cl)c3)N2C1=O)NCc1ccc2c(c1)OCO2` (stereo not given): inactive: -18.4%; for `CC1CCCCN1C(=O)CSc1n[nH]c(-c2ccccc2Cl)n1` (stereo not given): inactive: 20%. The same measure for `CCN(C(=O)c1nn(-c2ccc(OC)c(Cl)c2)c(=O)c2c1c1ccccc1n2C)c1cccc(C(F)(F)F)c1`: inactive: -19.1%. The same measure for `O=C(CN1C(=O)COc2ccc(Cl)cc21)Nc1ccc(F)cc1`: inactive: -17.7%; for `COc1ccc(-c2nc3ccc(NS(=O)(=O)c4ccc(C)cc4)cc3o2)cc1`: inactive: -15.6%; for `O=c1[nH]cnc2c1ncn2[C@H]1CC[C@@H](CO)O1`: inactive: 7.55%. For `O=C(OCc1cc(=O)n2nc(-c3cccs3)sc2n1)c1ccc(Cl)cc1`, the “activity change, negative = inhibition” value was inactive: 1.21%. In the case of `Cc1ccc(Cn2c(C(=O)NCc3ccccc3Cl)cc3sccc32)cc1`, the “activity change, negative = inhibition” value is inactive: -11.5%. The result for `Cc1ccc(NC(=O)Cn2ncn3c(cc4ccccc43)c2=O)cc1F` reads inactive: -18.4%; that for `COC(=O)c1c(SCC(=O)Nc2cc(OC)cc(OC)c2)[nH]c2ccc(C)cc2c1=O`, inactive: -0.333%. The result for `CCC1CCC(C(=O)NC(C(=O)Nc2cccc(OC)c2)C(C)C)CC1` (stereo not given) reads inactive: 8.46%; that for `O=C(CCC(=O)N1CC2CCCN2c2ccccc21)NCc1ccc(Cl)cc1` (stereo not given), inactive: -14.6%. The result for `CCOc1ccc(CNCc2c(C(=O)O)c(C)n(Cc3cccc(OC)c3)c2C)cc1OC` reads inactive: -4.38%.

In the case of `Cc1cccc(NC(=O)CSc2nnc3[nH]c(=O)cc(-c4ccccc4)n23)c1C`, the “activity change, negative = inhibition” value was inactive: 56.9%. Regarding `Cc1nc2nc(CNC(=O)OC(C)(C)C)nn2c(C)c1CCC(=O)NCc1ccc(F)cc1`, the “activity change, negative = inhibition” value was inactive: -2.46%. Take `COc1ccc(C2Nc3ccccc3-c3cc(C)nn32)cc1OC` (stereo not given): the “activity change, negative = inhibition” value is inactive: -9.4%.

Take `COC(=O)c1cc2sc(C)cc2n1Cc1cccc(OC)c1`: the “activity change, negative = inhibition” value was inactive: -30%. The same measure for `CCOC(=O)c1c(-c2ccc(OC)cc2)oc2ccc(OCc3ccccc3C)cc12`: inactive: -1.38%.

As for `CCOC(=O)c1c(C)[nH]c(C)c1S(=O)(=O)N1CCCC(C(=O)NCc2cccc(C)c2)C1` (stereo not given), the “activity change, negative = inhibition” value was inactive: -18.9%. The result for `Cc1cccn2c(=O)c(C(=O)NCc3ccc(F)cc3)c(O)nc12` reads inactive: -1.51%; that for `CCN(CC)CCNC(=O)C1CCN(c2nn3cc(-c4ccc(F)cc4)nc3s2)CC1`, inactive: -4.98%; that for `O=c1cc(-c2ccccc2)nc(SCc2nc(-c3ccccc3Cl)no2)[nH]1`, inactive: -1.92%. On to `FC1(F)C(F)(F)C(F)(F)C2(F)C(F)(F)C(F)(F)C(F)(F)C(F)(F)C2(F)C1(F)F` (stereo not given), for which the “activity change, negative = inhibition” value was inactive: 3%. The result for `CCOc1cc(C(=O)Nc2cc3c(cc2N2CCOCC2)n(C)c(=O)n3C)cc(OCC)c1OCC` reads inactive: -1.13%. The same measure for `CNc1ncnc2c1cnn2-c1ccc(C)c(C)c1`: inactive: 62.5%; for `Cc1ccccc1CNC(=O)CCCn1c(=O)c2cccn2c2cccnc21`: inactive: 6.91%; for `Cc1ccc(N2CC(NC(=O)c3cccs3)CC2=O)cc1C` (stereo not given): inactive: -25.9%. The result for `Cc1cccc(NC(=O)c2ccc(-n3cnc4cccnc43)cc2)c1C` reads inactive: 11%; that for `Fc1ccc([C@@H]2CCNC[C@H]2COc2ccc3c(c2)OCO3)cc1`, “inactive”. With `Oc1ccccc1-c1nc(/C=C/c2ccccc2Cl)nn1-c1ccccc1`, the “activity change, negative = inhibition” value is inactive: -20.2%. For `CCc1ccc(C(=O)c2cn(CC(=O)Nc3ccc4c(c3)OCO4)c3ccc(OC)cc3c2=O)cc1`, the “activity change, negative = inhibition” value is inactive: -17.6%. In the case of `Cn1c(C(=O)Nc2cccc(C(F)(F)F)c2)cc2c(=O)n3ccccc3nc21`, the “activity change, negative = inhibition” value is inactive: -4.15%.

Take `CCOc1ccc(NC(=O)C2CCC(CNS(=O)(=O)c3ccc(Br)s3)CC2)cc1` (stereo not given): the “activity change, negative = inhibition” value is inactive: 0%. The result for `COc1ccc(OC)c(CNC(=O)C(C)n2c(C)c3cnn(-c4ccccc4)c(=O)c3c2C)c1` (stereo not given) reads inactive: -22.2%; that for `CC1=C(c2ccc(C)c(C)c2)S(=O)(=O)N=C1N1CCC(C(=O)N2CCC(C)CC2)CC1`, inactive: -13.5%.

In the case of `CCOc1cc(/C=C(\C#N)C(=O)NCC2CCCO2)ccc1O` (stereo not given), the “activity change, negative = inhibition” value is inactive: 5.23%. The same measure for `CCOc1ccc(C(=O)c2oc3ccccc3c2NC(=O)Cc2coc3ccc(CC)cc23)cc1`: inactive: 4.47%; for `Cc1cccc(NC(=O)N2CCC3(CC2)Oc2ccccc2C(=O)N3Cc2ccccc2F)c1C`: inactive: -1.41%; for `O=C(Cc1ccc(F)cc1)Nc1nnc2n1CCS2`: inactive: -5.29%. The same measure for `COc1cccc(C(=O)Nc2c(C(=O)N3CCN(c4ccc(F)cc4)CC3)oc3ccccc23)c1`: inactive: -29.8%; for `COc1cc2ccccc2cc1C(=O)Nc1ccc2oc(-c3ccc(F)cc3Cl)nc2c1`: inactive: 22.8%. The result for `CN(C)CCCN1c2ccccc2CCc2ccccc21` reads inactive: -8.2%; that for `C[C@H]1COc2c(N3CCN(C)CC3)c(F)cc3c(=O)c(C(=O)O)cn1c23`, inactive: 3.64%; that for `CCc1ccc2occ(CC(=O)Nc3ccccc3C(F)(F)F)c2c1`, inactive: -1.52%. On to `CC(C)c1ccc(Nc2cc(C(=O)NC3CCCCC3)c3ccccc3n2)cc1`, for which the “activity change, negative = inhibition” value was inactive: -0.231%. The result for `CCc1cccc(-n2c(=O)c3cccnc3n2CC(=O)Nc2ccc(F)c(C)c2)c1` reads inactive: -27.5%; that for `O=C(NCCn1ccc2ccccc21)c1ccc(Cl)cc1`, inactive: 26.3%; that for `COc1ccccc1NC(=O)CSc1nc(-c2ccc(C(C)(C)C)cc2)c(C#N)c(=O)[nH]1`, inactive: 1.38%. The same measure for `CCc1ccccc1OCC(=O)Nc1ccc(S(=O)(=O)Nc2nc(C)cc(C)n2)cc1`: inactive: -13.1%.

`CCOC(=O)c1c(-c2ccc(C)cc2)csc1NC(=O)c1cc(=O)c2ccc(C)cc2o1`: the activity change, negative = inhibition was inactive: -17.1% [at 11.5 µM].

Regarding `COc1ccc(NC(=O)Cn2c(=O)n(Cc3nc(-c4ccccc4)no3)c(=O)c3ccccc32)cc1Cl`, the “activity change, negative = inhibition” value was inactive: -29.2%.

As to `CCCCCCCCCCC(CO)CCCCCCCC` (stereo not given), the “activity change, negative = inhibition” value is inactive: 10.5%. The same measure for `NC(CO)C(=O)NNCc1ccc(O)c(O)c1O` (stereo not given): “inactive”. For `COc1ccc(NC(=O)C2CCCN(S(=O)(=O)c3ccc(Br)s3)C2)cc1` (stereo not given), the “activity change, negative = inhibition” value was inactive: -13.5%. The result for `CC(=O)N1CCc2cc(S(=O)(=O)NC(C(=O)Nc3ccc(C)cc3C)C(C)C)ccc21` (stereo not given) reads inactive: -27.5%; that for `CCOC(=O)c1c(NC(=O)c2cc(-c3cccc(OC)c3)on2)sc2c1CCCC2`, inactive: 3.72%; that for `COc1cccc(CNC(=O)Cc2c(C(=O)O)c(C)cn2C)c1`, inactive: -11.8%.

With `COc1ccc(CC(=O)NCC(c2cccs2)S(=O)(=O)c2ccc(C)cc2)cc1` (stereo not given), the “activity change, negative = inhibition” value is inactive: -6.17%. The same measure for `CCc1ccc(NC(=O)Cn2c(=O)n(Cc3ccco3)c(=O)c3oc4ccccc4c32)cc1`: inactive: -1.56%; for `O=C(NCc1cccs1)c1ccc(CSc2nc3cccnc3n2Cc2ccccc2F)cc1`: inactive: -29.6%. In the case of `Cc1cc(C)c(NC(=O)Cn2cnc3c(oc4ccccc43)c2=O)c(C)c1`, the “activity change, negative = inhibition” value was inactive: 54.8%.

As for `Cc1oc(-c2ccccc2Cl)nc1CSc1nc2ncccc2[nH]1`, the “activity change, negative = inhibition” value is inactive: -16.4%. The result for `COc1ccccc1N1CCN(c2ncnc3onc(-c4cccc(Cl)c4)c23)CC1` reads inactive: -21%; that for `CCOC(=O)c1c(C)n(-c2ccccc2)c2ccc(OC(=O)c3cccc(OC)c3OC)cc12`, inactive: -19%. The result for `COc1ccc(S(=O)(=O)Nc2c(C)nc3nc(C)[nH]n3c2=O)cc1` reads inactive: -18.1%; that for `CCc1cccc(N2C(=O)CSC23C(=O)Nc2ccccc23)c1` (stereo not given), inactive: -31.4%.

For `CCCN(C(=O)c1cc2c(=O)[nH]c3ccc(C)cc3c2s1)c1ccc(CC)cc1`, the “activity change, negative = inhibition” value was inactive: -10.4%. With `CC1CCN(C(=O)c2cc(-c3ccc(Br)cc3)on2)CC1`, the “activity change, negative = inhibition” value is inactive: 43.4%. The result for `CCOC(=O)C1CCCN(C(=O)c2nn(-c3ccc(C)cc3)c(=O)n(C)c2=O)C1` (stereo not given) reads inactive: 1.47%; that for `CCc1nnc2c(N3CCN(c4cc(Cl)ccc4C)CC3)nc3ccccc3n12`, inactive: -6.47%; that for `COc1ccc(C2=NC(c3ccncc3)=Nc3ccc(OC)cc3N2)cc1`, inactive: -8.16%.

On to `COc1ccc2c(c1)c(N1CCCC1=O)c(C(=O)Nc1ccccc1C(F)(F)F)n2C`, for which the “activity change, negative = inhibition” value is inactive: -21%. For the compound `CCOc1ccc(NC(=O)CCNS(=O)(=O)c2cccc3nonc23)cc1`, the “activity change, negative = inhibition” value was inactive: -10.7%. The result for `COc1ccc(-c2noc(COc3cc(C)ccc3C)n2)cc1OC` reads inactive: -22.3%; that for `O=C1[C@@H]2CSC(c3ccc(Cl)cc3)N2C(=O)N1c1ccccc1` (stereo not given in full), inactive: -22%. The same measure for `CC(C)c1ccc(N2C(=O)CSC23C(=O)N(C)c2ccccc23)cc1` (stereo not given): inactive: -31.1%; for `COc1ccc(Cl)cc1NC(=O)c1cn(C2CCCCC2)c(=O)c2c1c1ccccc1n2C`: inactive: -14.7%; for `CCOc1ccc(Nc2nc3cc(Cl)c(Cl)cc3nc2-n2nc(C)cc2C)cc1`: inactive: -6.82%.
